In all, about 50,000 compounds went through this assay and about 800 (1.6%) showed an effect of 50% or more. The list shows a part of the results.

The assay deals with Bcl-2-like protein 10 (Homo sapiens) (UniProt Q9HD36). The assay is described as follows: TR3 peptide-Bcl-B binding displacers, biochemical primary FP assay, phenotype converters (AID 1240).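 Also: 0% = Bcl-B with tracer peptide and DMSO and 100% = tracer peptide lacking Bcl-B.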 Particulars: GST-Bcl-B / FITC-TR3 peptide fluorescence polarization; stronger effect = higher value; compound at 3.75 mg/L.
Sequence of UniProt Q9HD36 (Q9HD36 whole entry, looked up): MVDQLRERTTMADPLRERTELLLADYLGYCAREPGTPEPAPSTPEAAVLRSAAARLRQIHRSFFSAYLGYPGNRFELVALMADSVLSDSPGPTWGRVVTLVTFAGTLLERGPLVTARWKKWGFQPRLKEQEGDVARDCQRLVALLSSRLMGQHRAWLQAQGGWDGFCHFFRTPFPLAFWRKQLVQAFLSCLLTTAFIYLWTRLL
In the case of `CN(C)CCCCCCNC(=O)/C=N\O`, the displacement came to 13.7%.

As to `O=C(/C=C/c1ccc(F)cc1)Nc1ccccc1Cl`, the displacement was 9.7%. `CCN(CC)c1ccc(C=C2C(=O)NC(=S)NC2=O)cc1[N+](=O)[O-]`: the displacement was determined as 27%.

In the case of `O=C(N/N=C/c1ccccc1O)c1c[nH]c2ccccc12`, the displacement is -1.1%.

For `COc1ccc(C2=C/C(=C/c3ccccc3OC)C(=O)O2)cc1`, the displacement stood at 85.1%. With `C=CCNC(=O)CN(c1ccc(F)cc1)S(=O)(=O)c1ccccc1` the figure was -7.4%. On to `COc1ccc(/C=N/Nc2nc(C)cc(-c3ccccc3)n2)c(OC)c1`, for which the displacement is -10.3%. Take `COc1ccc(C2/C(=C(\O)c3ccc(Cl)cc3)C(=O)C(=O)N2CCCCCC(=O)O)c(OC)c1` (centres undefined): the displacement was -0.6%. Consider `O=C(Nc1ccc(O)c(-c2nc3ccccc3s2)c1)c1cc2ccccc2oc1=O`, for which the displacement amounted to 4.4%. Turning to `CCOc1ccc(C2/C(=C(\O)c3ccc(C)cc3)C(=O)C(=O)N2CCCC(=O)O)cc1` (centres undefined), the displacement is -12.1%. Consider `C[n+]1ccccc1/C=C/c1ccc(O)cc1`, for which the displacement came out at 1.8%. As to `CCOC(=O)C1=C(O)/C(=C/c2ccco2)SC1=Nc1ccc(Cl)cc1`, the displacement is -19.5%. On to `O=C1SC(Nc2ccc(O)cc2)C(=O)N1c1ccccc1` (centres undefined), for which the displacement came out at 9.5%. With `CS(=O)(=O)c1ccc2nc(NC(=O)c3ccccc3Cl)sc2c1`, the displacement turned out to be 16.4%.

Regarding `Cc1ccc(S(=O)(=O)N/N=C/c2ccc(-c3ccc([N+](=O)[O-])cc3Cl)o2)cc1`, the displacement is -9.8%. Regarding `COc1ccc(N/C=C/C(=O)c2ccco2)cc1`, the displacement stood at 11.7%. With `Cc1ccc(-c2nc(O)c(C3=c4cc(C)cc(C)c4=NC3=O)s2)cc1`, the displacement is -50.9%. With `COc1ccc(NC(=O)c2cc([N+](=O)[O-])ccc2N2CCN(C)CC2)cc1` the figure was 1.8%; with `COc1cc(OC)c(C2N(Cc3ccccc3)CCN2Cc2ccccc2)cc1Br`, -0.1%. Regarding `CN(C)CCCNC(=O)N1CCOCC1`, the displacement was determined as 11%. For `COc1ccc(C(C[N+](=O)[O-])C2(c3ccc(OC)c(OC)c3)C(=O)c3ccccc3C2=O)cc1` (centres undefined), the displacement was -1.7%. As for `Brc1ccc2nc(N/N=C/c3ccccc3)nc(-c3ccccc3)c2c1`, the displacement is -6%. As for `CC(C)COc1ccc(C(=O)Nc2cc([N+](=O)[O-])ccc2Cl)cc1`, the displacement is -1.1%. Take `O=C(c1ccc(Br)cc1)c1cc(Cl)ccc1NCc1ccccc1`: the displacement was -2.1%.

As for `Cc1ccc(-c2cc(C(F)(F)F)n3ncc(C(=O)NCc4cccnc4)c3n2)cc1`, the displacement was -0.4%. Consider `O=C(CN1C(=O)CCC1=O)NCCc1ccccc1`, for which the displacement was -5.5%.

`COC(=O)C(C)CNCc1ccccc1` (centres undefined): the displacement turned out to be 15.6%. Turning to `COc1ccc(Br)cc1CN1CCN(Cc2cccc([N+](=O)[O-])c2)CC1`, the displacement is -19.8%. For `COc1cccc(OC)c1C(=O)Nc1ccc2ccccc2c1`, the displacement was determined as 7.9%. As for `O=C(N/N=C\c1ccc(Cl)cc1Cl)c1cncc(Br)c1`, the displacement turned out to be 6.5%. With `Cc1cccc(NC(=O)CCCOc2ccccc2)c1C`, the displacement was -4.4%. Turning to `COC(=O)c1ccc(C(=O)OC)c(NC(=O)/C=C/c2ccc([N+](=O)[O-])cc2)c1`, the displacement was -7.2%. On to `O=C1C(Cl)=C(Nc2cccc(C(F)(F)F)c2)C(=O)c2ccccc21`, for which the displacement was determined as 1.1%. As to `COc1ccc(NC(=O)C(=O)N/N=C/c2ccc(OC)c(OC)c2)cc1`, the displacement is 6.2%. Consider `Cc1cc2oc(=O)cc(C)c2cc1NC(=O)C(C)C`, for which the displacement was 21.2%. In the case of `COc1nc2nonc2nc1Nc1ccc(C)cc1` it was 7.8%; in that of `CCOc1ccccc1NC(=O)c1c(NC(=O)C(C)Oc2cccc(Cl)c2)sc2c1CCC2` (centres undefined), 7.6%; in that of `Cc1ccc(/C=C2\SC(=S)N(CCc3ccccc3)C2=O)cc1`, 17%. `O=C(COc1ccc(Br)cc1)Nc1cccc(NC(=O)c2ccccc2Cl)c1`: the displacement turned out to be 2.4%. With `CCC(C(=O)Nc1cc(C)cc(C)n1)c1ccccc1` (centres undefined), the displacement turned out to be 8.3%. In the case of `COc1ccc2oc(-c3ccccc3C)cc(=O)c2c1` it was 10.6%. With `O=C(O)c1cccc(N2C(=O)C3C4C=CC(CC4)C3C2=O)c1` (centres undefined), the displacement came to 7.8%. For `O=C(Nc1ccccc1-c1nc2ccccc2s1)c1cccc([N+](=O)[O-])c1`, the displacement is 2.3%. With `O=c1cnnc(N/N=C\c2ccc(C(F)(F)F)cc2)[nH]1` the figure was -13.1%; with `CCOC(=O)c1c(-c2ccccc2)oc2ccc(OC(C)C(=O)OCC)cc12` (centres undefined), 8.1%; with `O=C1CSC(=O)N1CNc1cc(Cl)ccc1Cl`, 10.5%. As for `COc1ccc(NC(=O)C2C3CCC(C3=C(C)C)C2C(=O)O)cc1` (centres undefined), the displacement stood at 0%. Regarding `CC(=O)C1=C(O)C(=O)N(CC2CCCO2)C1c1ccccc1F` (centres undefined), the displacement is -1.6%. `COc1ccccc1/C=C1\SC(=S)N(NC(=O)c2ccccc2Cl)C1=O`: the displacement was 3.9%. Turning to `Cc1ccc(OCC(=O)Nc2cc([N+](=O)[O-])ccc2C)c(C(C)(C)C)c1`, the displacement was found to be 6.9%. Turning to `CC1(C)CC(=O)C(C2(C3=C(O)CC(C)(C)CC3=O)C(=O)Nc3ccccc32)C(=O)C1` (centres undefined), the displacement came out at 19.1%. As to `Cc1ccc(Nc2cc(N3CCOCC3)c(N)c3c2C(=O)c2ccccc2C3=O)cc1`, the displacement was 7.2%. On to `CC(=O)Nc1ccc(S(=O)(=O)Nc2ccc(Oc3ccccc3)cc2)cc1`, for which the displacement was -12.7%. For `CC(C)(C)c1ccc(OCC(=O)Nc2ccc(C(=O)O)cc2)cc1`, the displacement amounted to 2%. Regarding `O=C1NC(=S)N(c2ccc(F)cc2)C(=O)/C1=C/c1cc(Cl)c(O)c(Cl)c1`, the displacement was -20%. For `c1ccc2sc(-c3ccc(NCc4ccc5c(c4)OCO5)cc3)nc2c1`, the displacement came out at 11.4%. On to `COc1cc(NC(=O)COc2cccc(OC)c2)cc(OC)c1`, for which the displacement is -4.7%.

Regarding `COc1ccc(CCNC(=O)c2ccccc2OC)cc1OC`, the displacement is -4.9%. For the compound `Cc1ccc(CN2CCN(N=Cc3c(O)ccc4ccccc34)CC2)c(C)c1`, the displacement was found to be 0.3%. `C=C(C)CSc1nnc2n(-c3ccc(OC)cc3)c(=O)c3c4c(sc3n12)CCCC4`: the displacement came out at 3%.

For the compound `CCc1c(C)sc(NC(=O)C2C3C=CC(C3)C2C(=O)O)c1C(=O)OC(C)C` (centres undefined), the displacement amounted to 7.4%. Take `CC(C)NC(=O)C1C(c2ccccc2)=C1c1ccccc1`: the displacement is -4.6%. As for `CCOc1cc(/C=N/NC(=O)CSc2nc3ccccc3n2Cc2ccccc2)ccc1O`, the displacement is -9.5%. In the case of `O=C(C1CCCCC1)N1CCN(c2ccc([N+](=O)[O-])cc2)CC1` it was -5.1%. As for `NS(=O)(=O)c1cccc(NC(=O)c2ccc(Br)o2)c1`, the displacement is -2.6%.

For the compound `CCc1cc(C)cc(OCCOc2ccc(/C=N/n3cnnc3)cc2)c1`, the displacement is -2.6%. As to `O=C1C2C(C(=O)N1/N=C/c1ccc([N+](=O)[O-])cc1)C1C=CC2C12CC2` (centres undefined), the displacement was found to be 4.4%. With `CC(=NCc1ccccc1)c1c(C)[nH]n(-c2nc3ccccc3s2)c1=O` the figure was 12.2%; with `NC1=NC(=O)/C(=C/c2ccccc2[N+](=O)[O-])S1`, 11%. For the compound `C=CCN=C(C)C1=C(O)C(C(=O)OC)C(C)(C)CC1=O` (centres undefined), the displacement is -6.4%. Regarding `O=C(c1cccc([N+](=O)[O-])c1)c1ccc2c(c1)C(=O)N(c1ccccn1)C2=O`, the displacement is 4.4%.

Consider `Cc1ccc(C(=O)Nc2ccc(S(=O)(=O)N=C(N)N)cc2)cc1`, for which the displacement was -3.2%. In the case of `COc1ccc(CCNc2cc(N3CCCC3)ccc2[N+](=O)[O-])cc1OC` it was 0%; in that of `O=C(Nc1ccc(Br)cn1)c1cc(F)c(F)cc1Cl`, 9.1%; in that of `O=C(c1ccccc1F)N1CCN(c2ccc([N+](=O)[O-])cc2C(F)(F)F)CC1`, 12.4%. As to `Oc1ccc(/C=N/Nc2cc(N3CCCC3)nc(N3CCCC3)n2)cc1O`, the displacement amounted to 15.5%.

Turning to `COc1cccc(/C=C2/C(=O)NN(c3ccc(I)cc3)C2=O)c1`, the displacement is 7.8%. Regarding `CC1CCC/C(=C(\C#N)c2nc(-c3cc4ccccc4oc3=O)cs2)C1` (centres undefined), the displacement was -1.3%. As to `CC(C)(C)N(C=C(Cl)Cl)C(=O)NC1CCCCC1`, the displacement is -7.7%. Consider `CCOC(=O)CSc1nnc(-c2cccs2)n1-c1ccccc1`, for which the displacement was -6.5%. Take `CC1(C)CC(NC(=O)/C=C/C(=O)O)CC(C)(C)N1`: the displacement is 10%. In the case of `Cc1c(OCC(=O)c2ccccc2)ccc2c(-c3ccccc3)cc(=O)oc12` it was 1.4%. Consider `CC(C)c1cccc(C(C)C)c1OCCCCN1CCOCC1`, for which the displacement is 5.8%. In the case of `COc1ccc(Cc2noc(-c3ccc([N+](=O)[O-])cc3)n2)cc1OC`, the displacement was -4.5%. Consider `CCOC(=O)C1=C(C)NC2=C(C(=O)c3ccccc32)C1c1ccc(OC)cc1` (centres undefined), for which the displacement is -8.3%. With `Cc1cc(OCC(=O)Nc2ccc(-c3nc4ccccc4s3)c(O)c2)ccc1Cl` the figure was 12.4%; with `COC(=O)c1cc(-c2ccccc2)n(-c2ccccc2)n1`, 2%; with `CCc1c(C#N)c(N)nc(SCC(=O)c2ccc(C)cc2)c1C#N`, 0.6%. For `Cc1cccc(/C=N/NC(=O)c2cncc(Br)c2)c1O`, the displacement came to 2.4%.

Turning to `CCOC(=O)C(CCOCCOc1c(C)cc(Cl)cc1Cl)C(=O)OCC`, the displacement was -5.7%. As for `COc1ccc(CN2CCN(Cc3cccc(Cl)c3)CC2)cc1OC`, the displacement is -10.5%.

As to `O=C(NC(Cc1ccc([N+](=O)[O-])cc1)C(=O)NCc1ccco1)OCc1ccccc1` (centres undefined), the displacement is 12.8%. For `COc1ccc(NC(=O)CC2CCCCC2)cc1`, the displacement came to 2%.

Take `CN1CCN(c2ccc(/C=C3\Sc4ccccc4C3=O)cc2[N+](=O)[O-])CC1`: the displacement is 8%. With `O=C(Nc1ccc(O)c(-c2nc3ccccc3o2)c1)c1ccc2c(c1)OCCO2` the figure was 3.5%; with `Oc1ccc(O)c([S+]2CCCC2)c1`, 10.3%; with `COc1ccc(-c2nnc(-c3cccc([N+](=O)[O-])c3)o2)cc1`, 5.8%. Turning to `CCOC(=O)C1=C(C)N=c2s/c(=C\c3ccc(OC)c(OC)c3OC)c(=O)n2C1c1ccc(Cl)cc1` (centres undefined), the displacement worked out at 152%. As for `CS(=O)(=O)Nc1nnc(SCC(=O)N(c2ccccc2)c2ccccc2)s1`, the displacement is 0.9%. Turning to `O=C(N=C1SCC(=O)N1c1ccccc1)c1ccco1`, the displacement is -7.3%. As to `O=C(NC(=S)Nc1cccnc1)c1ccc(Cl)cc1`, the displacement stood at 1.1%. As for `O=C(CCCN1C(=O)c2cccc3cccc(c23)C1=O)Nc1ccccn1`, the displacement was -1.3%.

As for `O=C(O)c1cc(NC(=O)c2ccc(Br)cc2)cc(C(=O)O)c1`, the displacement came to 5.7%.

In the case of `O=S(=O)(Nc1ccc(Cl)c(C(F)(F)F)c1)c1ccccc1`, the displacement stood at 11.6%. Take `COc1ccc(NC(=O)Nc2cccc3cccnc23)cc1`: the displacement is -0.9%. On to `C=CCc1cc(/C=C2\C(=O)NC(=O)N(c3ccc(C)cc3)C2=O)cc(OCC)c1O`, for which the displacement was 1.7%. In the case of `CC1=C(C(=O)Nc2ccc(C)cc2)C(c2ccc(Cl)cc2Cl)NC(=S)N1` (centres undefined) it was -0.6%; in that of `COc1ccc(-c2cc(-c3ccc(C)cc3)nc(N/N=C/c3cccc(OC)c3O)n2)cc1OC`, 3.3%. For `COc1ccc(NC(=O)c2cccc3c2-c2ccc(I)cc2C3)cc1`, the displacement is 1.1%.

Values taken from PubChem BioAssay AID1240 (Sanford-Burnham Center for Chemical Genomics, 2008).
